Results: PubChem BioAssay AID1508623 (National Center for Advancing Translational Sciences (NCATS), 2021)
About 450 (0.94%) of roughly 48,000 compounds were called active. About 19% were inconclusive and are not listed. Calls come from the whole dose curve; as a rule, active = well fitted inhibition curve with a large enough effect; inconclusive = small, poorly fitted or top-dose-only effect; inactive = no such curve, though single readings can be large or run the other way. Some of the results follow.

assay: Primary qHTS for Identification of Small Molecule Inhibitors of Huntingtin Promoter Activity; conditions: HEK293 HTT promoter firefly luciferase reporter (activity 0% = vehicle and -100% = no light), 24 h; series mostly up to 57.5 µM; activity change, negative = inhibition: at the top concentration; note: nearly all actives have a fitted effect of over 50% in size
How it was run: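 HEK293 luciferase promoter-reporter cells (2,500/well) plated 24 h, then compounds added at up to 57.5 uM final for 24 h at 37 °C. Firefly luminescence by Dual-Glo, normalized to vehicle (0%) and zero RLU (-100%).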

| SMILES | activity change, negative = inhibition |
| --- | --- |
| COc1ccc(-c2nc3ccccc3n2Cc2ccccc2)cc1 | inactive: -29.7% |
| CC1=C(C(=O)Nc2ccccc2)C(c2ccccn2)n2nc(SCc3ccccc3)nc2N1 (configuration not stated) | inactive: -12.1% |
| Cc1ccc(-n2nc(C)c3c(C(=O)Nc4ccccc4C(F)(F)F)cc(C)nc32)cc1 | inactive: -27% |
| CCCN(C(=O)c1cc2c(=O)oc3ccc(C)cc3c2s1)c1ccc(OCC)cc1 | inactive: -12.4% |
| CCSc1nc(-c2cccc(Cl)c2)nc2c1Cc1c(CO)cnc(C)c1O2 | inactive: -6.36% |
| COc1cccc(CNC(=O)Cn2nc(C)n3c(cc4cc(C)ccc43)c2=O)c1OC | inactive: -2.31% |
| CCc1nn(CC(=O)N2CCN(c3cccc(C)c3)C(C)C2)c(=O)c2cc3sccc3n12 (configuration not stated) | inactive: -8.78% |
| CCOCCCNC(=O)C(c1ccc(C)cc1)N(Cc1ccc2c(c1)OCO2)C(=O)c1ccccc1O (configuration not stated) | inactive: -13.6% |
| O=C(CSc1nnc2scc(-c3ccc(Cl)cc3)n12)Nc1ccc(F)cc1 | inactive: -11.1% |
| COc1ccccc1C(=O)NC1(C(F)(F)F)NC(=O)N(CCc2ccccc2)C1=O (configuration not stated) | inactive: -9.79% |
| COC(=O)[C@H]1[C@H]2C[C@@H]3c4[nH]c5cc(OC)ccc5c4CCN3C[C@H]2C[C@@H](OC(=O)c2cc(OC)c(OC)c(OC)c2)[C@@H]1OC | inactive: -7.11% |
| Cc1ccc(Nc2c(-c3cccnc3)nc3ccc(C)cn23)cc1 | inactive: -20.1% |
| O=C(CSc1nc2c([nH]c3ccccc32)c(=O)n1-c1ccccc1)Nc1cccc(C(F)(F)F)c1 | inactive: -24.3% |
| Cc1ccc(N(C)C(=O)Cn2ncc3c([nH]c4ccccc43)c2=O)cc1C | inactive: -2.52% |
| COC(=O)c1cc(-c2ccc(Cl)cc2)c2c(=O)[nH]c(=O)n(C)c2n1 | inactive: -11.2% |
| CCOCCCNC(=O)C1CCN(c2nc3ccc(C)cc3[nH]2)CC1 | inactive: 11% |
| COc1ccc(NC(=O)CCc2c(C)nn(-c3ccc(N4CCCC4)nn3)c2C)cc1Cl | inactive: 63.6% |
| Cc1ccc(Cn2c(=O)n(CCc3ccccc3)c(=O)c3sc4ccccc4c32)cc1 | inactive: 14.9% |
| COc1ccc(N2CCN(C(=O)Cn3cnc4sc(C)c(S(=O)(=O)N5CCCCC5)c4c3=O)CC2)cc1 | inactive: -9.49% |
| Cc1ccc(NC(=O)CCn2cccn2)c(C)c1 | inactive: 7.31% |
| Cc1ccc(S(=O)(=O)NC(=O)NC2CCCCCCC2)cc1 | inactive: 7.27% |
| O=C(CSc1cn(CCNC(=O)c2ccccc2F)c2ccccc12)Nc1ccc2c(c1)OCCO2 | inactive: -5.85% |
| COCCn1c(C)cc(O)c(C(c2ccccc2)N2CCN(c3ccccc3F)CC2)c1=O (configuration not stated) | inactive: -6.65% |
| C=CCc1ccc(O)c(-c2ccc(O)c(CC=C)c2)c1 | inactive: -14.3% |

| SMILES | activity change, negative = inhibition |
| --- | --- |
| COc1cc([C@@H]2c3cc4c(cc3[C@H](O)[C@H]3COC(=O)[C@H]23)OCO4)cc(OC)c1OC | inactive |
| O=C(O)CN(CCOCCOCCN(CC(=O)O)CC(=O)O)CC(=O)O | inactive: -3.32% [at 0.739 µM] |
| CC(Nc1ccc(-c2nc(-c3cccnc3)no2)cc1[N+](=O)[O-])c1ccccc1 (configuration not stated) | inactive: -4.76% |
| COc1ccccc1-c1nc(CNC(=O)NC2CCCCC2)c(C)o1 | inactive: -4.52% |
| Cc1ccc(NC(=O)CCn2nc(C)c3c(C)n(-c4ccccc4)nc3c2=O)cc1Cl | inactive: -7.66% |
| CC1CCCCN1Cc1nc2c(c(=O)n(C)c(=O)n2C)n1Cc1ccc(Br)cc1 (configuration not stated) | inactive: -0.816% |
| COc1ccc(NC(=O)c2c(-c3ccc(C)cc3)nnc3ccccc23)cc1OC | inactive: 12.8% |
| Cc1ccc2c(Sc3ccc(Cl)cc3)c(C(=O)N3CCCCC3)[nH]c2c1 | inactive: -20.3% |
| CC(C)C[C@H](NC(=O)[C@@H](O)[C@H](N)Cc1ccccc1)C(=O)O | inactive: -14.2% |
| CC(C)c1ccc(NC(=O)c2cn(C3CCCC3)c(=O)c3c2c2ccccc2n3C)cc1 | inactive: -26.5% |
| Cc1ccc(CNC(=O)Cn2nc(C)n3cccc3c2=O)cc1 | inactive: 2.42% |
| Cc1ccc(-n2ncc(C(=O)N3CCN(c4cccc(C)c4)C(C)C3)c2C2CCN(C(=O)OC(C)(C)C)CC2)cc1 (configuration not stated) | inactive: -4.15% |
| Cc1nn(CCCC(=O)NCc2ccc(F)cc2)c(=O)c2c1sc1ccccc12 | inactive: 9.44% |
| CCN1CCSc2ccc(C(=O)NC(C)c3ccccc3)cc21 (configuration not stated) | inactive: -15.6% |
| CCOc1ccc2nc(NC(=O)c3cc(=O)c4ccc(C)cc4o3)sc2c1 | inactive: 5.37% |
| Cc1cc(C)cc(C(=O)Nc2ccc(-c3nc4ncccc4o3)cc2)c1 | inactive: 10.2% |
| COc1c(C)cc(S(=O)(=O)NCCc2c(C)[nH]c3ccccc23)c(C)c1C | inactive: -5.36% |
| CCOC(=O)c1ccc(NC(=O)CCCc2nc(-c3ccccc3Cl)no2)cc1 | inactive: -18.9% |
| CCOc1ccc(-c2cc(NC(=O)Nc3cccc(C(C)=O)c3)c(C(=O)OC)s2)cc1 | inactive: 70.7% |
| COc1ccc(OC)c(NC(=O)C2CCCN(S(=O)(=O)c3c(C)nn(C)c3C)C2)c1 (configuration not stated) | inactive: -7.88% |
| Cc1ccc(NC(=O)c2cnn3c(C(F)F)cc(-c4ccccc4)nc23)c(C)c1 | inactive: -13.1% |
| Cc1ccc(NC(=O)Nc2nnc(N(CC(C)C)CC(C)C)s2)cc1Cl | inactive: 15.5% |
| COc1cccc(N2CCN(C(=O)C(CCSC)NS(=O)(=O)c3ccc4c(c3)oc(=O)n4C)CC2)c1 (configuration not stated) | inactive: 0.338% |
